Data as given in PubChem BioAssay AID485344 (National Center for Advancing Translational Sciences (NCATS), 2010).
Hit rate of the full screen: of about 340,000 compounds, about 6,900 (2%) were called active. Rule as the data show it: active = inhibition above about 30%; inactive = below that, where a call was filed. This is a selection; strong and weak results do not stand in their true shares. The source gives no active or inactive call for entries shown without one.
Also: 0% is about no effect.

The compounds below were run against D(2) dopamine receptor (Homo sapiens) (UniProt P14416) (assay: HTS Assay for Allosteric Antagonists of the Human D2 Dopamine Receptor: Primary Screen for Antagonists). Details: HEK293 TREx D2 cells, calcium flux, dopamine EC80; at 10 µM; stronger effect = higher value.
Chain of UniProt P14416 (P14416 whole entry, looked up): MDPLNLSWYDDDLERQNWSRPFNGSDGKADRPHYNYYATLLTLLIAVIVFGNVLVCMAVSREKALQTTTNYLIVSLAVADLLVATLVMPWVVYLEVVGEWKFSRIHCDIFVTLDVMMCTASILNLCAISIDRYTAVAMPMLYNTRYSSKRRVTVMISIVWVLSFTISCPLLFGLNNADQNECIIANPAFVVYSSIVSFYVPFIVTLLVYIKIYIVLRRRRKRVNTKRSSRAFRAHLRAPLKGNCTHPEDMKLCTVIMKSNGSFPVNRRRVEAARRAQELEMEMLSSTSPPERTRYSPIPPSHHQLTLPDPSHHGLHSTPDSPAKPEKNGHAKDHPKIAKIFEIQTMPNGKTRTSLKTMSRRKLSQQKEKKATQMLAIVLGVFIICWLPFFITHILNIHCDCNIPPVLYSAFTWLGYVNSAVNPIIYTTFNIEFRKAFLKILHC
In short: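 Compounds are added to dye-loaded, induced HEK293 T-REx cells coupled to calcium release via D2; after a 3 min kinetic read an EC80 dopamine stimulus is given and fluorescence is recorded for 3 more min.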
In the case of `CCN(c1ncnc2c1cnn2-c1cccc(Cl)c1)C1CCCCC1`, the inhibition was 10.4%. `COCCn1c(C)cc(O)c(C(c2ccc(Cl)cc2)N2CCCCC2)c1=O` (stereo not given) gave an inhibition of -0.898%. Compound `Cc1cc(C)c(NC(=O)CN2C(=O)CCSc3ccc(S(=O)(=O)N4CCCC4)cc32)c(C)c1` has an inhibition of 13.3%. With `COc1cccc(CNC(=O)CN2C(=O)CSc3ccc(S(=O)(=O)N4CCCC4)cc32)c1` the inhibition was 4.77%. For `CCN1CCc2c(C#N)c(NCc3ccccc3)nc(N(CC)CC)c2C1`, the inhibition was active: 45.8%. For `CSc1ccc(CNC(=O)Cn2ccc3cc(S(=O)(=O)N4CCCC4)ccc32)cc1`, the inhibition was -6.68%. In the case of `O=c1[nH]c2ccccc2cc1CN(CC1CCCO1)S(=O)(=O)c1ccccc1` (stereo not given), the inhibition was active: 34.6%. `COc1ccccc1CNC(=O)CS(=O)(=O)Cc1nc(-c2ccccc2C)oc1C` showed an inhibition of 19.6%. `CCOCc1cc(=O)[nH]c(SC)n1` was tested, and the inhibition was active: 30.3%. Compound `CN(C)c1ccc(C(=O)NCc2ccc3c(c2)CCN3C(=O)c2ccccc2)cc1` has an inhibition of 8.71%. With `CC(C)CCNC(=O)CSc1nc2ccccc2nc1Cc1ccc(Cl)cc1` the inhibition was -9.07%. For `CN(C)c1ccc(CNC(=O)c2sc3ncccc3c2-n2cccc2)cc1`, the inhibition was 13.6%. `CC1CCN(c2nc(-c3ccc(Br)cc3)nc3ccccc23)CC1` was tested, and the inhibition was 23.8%. `Nc1[nH]n2c(=O)c3c(nc2c1N=Nc1ccccc1)CCCC3` was tested, and the inhibition was active: 37.5%. In the case of `Cc1cc(C)cc(NC(=O)CCN2C(=O)c3ccccc3Sc3ncccc32)c1`, the inhibition was -26.3%. For `Nc1nnc(SCCN2C(=O)c3ccccc3S2(=O)=O)s1`, the inhibition was active: 49.1%. `O=C(Cn1c(=O)n2nc(-c3cccc(F)c3)nc2c2ccccc21)NCc1ccc(Cl)cc1` was tested, and the inhibition was -17.8%. For `COc1cccc(NC(=O)Cn2c(=O)n(Cc3ccco3)c(=O)c3cc(OC)c(OC)cc32)c1`, the inhibition was 6.03%. For `CCOC(=O)C1CCN(CC(=O)Nc2c(C(=O)OC)[nH]c3ccccc23)CC1`, the inhibition was active: 48.8%. `Cc1ccn2c(Nc3ccccc3C)c(-c3ccccc3)nc2c1` gave an inhibition of 13%. `O=C(Nc1ccc2nc(SCC(=O)N3CCOCC3)sc2c1)c1ccccc1Cl` gave an inhibition of -1.28%. Work on `Cc1ccc(NC(=O)CSc2nnc(COc3ccc(Cl)cc3)o2)c(C)c1` yielded an inhibition of 6.64%. Work on `Cc1cccc(OCC(=O)Nc2ccccc2OCc2cc(=O)n3cc(C)ccc3n2)c1` yielded an inhibition of 2%. Work on `Cc1ccc(NCc2cccn2-c2nnc(N3CCC(C(=O)NCc4ccc(F)cc4)CC3)s2)cc1` yielded an inhibition of 3.53%. `CCn1ccc2cc(S(=O)(=O)N3CCC(C(=O)NCc4ccc(F)cc4)CC3)ccc21` was tested, and the inhibition was 11.2%. With `COc1ccc(N(C)C(=O)C2CCN(S(=O)(=O)c3cc(Br)cc4c3N(C(C)=O)CC4)CC2)cc1` the inhibition was 6.53%. Work on `Cc1ccc(OCc2cc(=O)n3ccsc3n2)c(NC(=O)c2ccco2)c1` yielded an inhibition of 10.6%. In the case of `Cn1c(=O)n(C)c2cc(N3CCCCC3)c(NC(=O)c3c(F)cccc3F)cc21`, the inhibition was 0.869%. `CCOC(=O)c1cc(-c2ccccc2)n(CCC(=O)NCCc2ccc(OC)c(OC)c2)c1C` gave an inhibition of 14.5%. In the case of `COc1ccc(-c2nc3cc(NC(=O)c4cc5ccccc5o4)ccc3o2)cc1`, the inhibition was 4.07%. Work on `CCc1cccc(C)c1NS(=O)(=O)c1ccc(-c2cc(C)no2)s1` yielded an inhibition of -4.69%. `COc1ccccc1NC(=O)CSc1nnc(-c2ccco2)n1N` was tested, and the inhibition was active: 33.9%. With `COc1ccc(-c2cccc(NS(=O)(=O)c3cc(C)ccc3OC)c2)nn1` the inhibition was -0.495%. `Cc1cccc(NC(=O)c2c(N)sc3c2CCC(C)C3)c1` (stereo not given) showed an inhibition of -8.36%. `Cc1ccccc1NC(=O)c1c(NC(=O)c2cccs2)sc2c1CCC(C)C2` (stereo not given) showed an inhibition of -5.4%. `Cc1ccccc1Nc1c(-c2ccc(N3CCOCC3)cc2)nc2ccc(Cl)cn12` gave an inhibition of 7.1%. Work on `N#Cc1nc(/C=C/c2ccc(F)cc2)oc1NC1CCCCC1` yielded an inhibition of 13.1%. Work on `COc1ccc(C(=O)NCC(c2ccco2)S(=O)(=O)c2cccs2)cc1` (stereo not given) yielded an inhibition of -13.7%. `Cc1ccc(-c2nc3ncccc3o2)cc1NC(=O)c1ccc(-c2cccc(Cl)c2C)o1` gave an inhibition of -2.99%. `CCc1cccc(C)c1NC(=O)c1cn2c3c(ccc(Cl)c3c1=O)OC(C)C2` (stereo not given) showed an inhibition of 6.26%. Compound `Cc1cccc(N2CCN(c3ncnc4onc(C)c34)CC2C)c1` (stereo not given) has an inhibition of -7.33%. With `Cc1nc(-c2cccc(F)c2)sc1CCNC(=O)C(=O)Nc1ccc2c(c1)OCO2` the inhibition was 8.74%. Compound `CCCCN(C)S(=O)(=O)c1cc(-c2cc(C)no2)ccc1C` has an inhibition of 3.45%. Compound `CCOc1ccc(S(=O)(=O)NCC(c2ccc(N(C)C)cc2)N2CCc3ccccc32)cc1` (stereo not given) has an inhibition of 2.79%. With `Cc1cc(-c2nc3ncccc3o2)ccc1NC(=O)c1ccc(Cl)cc1` the inhibition was 8.44%. For `COC(=O)CSc1ccc2nnc(CCNS(=O)(=O)c3ccccc3)n2n1`, the inhibition was -7.33%. Compound `CCOc1ccc(NC(=O)c2c(NC(=O)c3ccccc3Br)sc3c2CCC(C)C3)cc1` (stereo not given) has an inhibition of 1.76%. In the case of `O=C(COC(=O)c1ccc(O)cc1O)Nc1ncc(Cl)cc1Cl`, the inhibition was active: 31.1%. Compound `CCOc1ccc(NC(=O)CC2C(=O)N(c3ccc(C)cc3)C(=O)N2Cc2ccc(OC)cc2)cc1` (stereo not given) has an inhibition of 11.5%. Work on `COc1ccc(OC)c(NC(=O)N(C)CCc2c(C)nn(C)c2C)c1` yielded an inhibition of 18%. Compound `O=C(NCCCCc1ccccc1)c1nn(-c2ccccc2)nc1CO` has an inhibition of -9.69%. `Cn1c(=O)oc2cc(S(=O)(=O)N3CCCC(C(=O)N4CCN(c5cccc(Cl)c5)CC4)C3)ccc21` (stereo not given) showed an inhibition of 0.297%. Work on `COc1ccc(NC(=O)Cn2nnc(C(=O)Nc3ccc(C)c(F)c3)c2N)cc1Cl` yielded an inhibition of -2.58%. In the case of `CC1=C(C(=O)OCC2CCCCC2)C(c2cccc(F)c2F)CC(=O)N1` (stereo not given), the inhibition was -3.06%. In the case of `CCN1CCN(c2nc(Nc3ccc(OC)cc3)nc(N)c2[N+](=O)[O-])CC1`, the inhibition was active: 41.5%. `COc1ccc(CNC(=O)CN(c2ccc(OC)cc2)S(=O)(=O)c2c(C)[nH]c(=O)[nH]c2=O)cc1` gave an inhibition of -10.1%. `Cc1cc(C)cc(OCCn2c(CCNC(=O)C3CCCCC3)nc3ccccc32)c1` gave an inhibition of -11.8%. For `O=C(Cc1ccccc1F)N1CCC(c2nc3c(nnn3Cc3cccc(Cl)c3)c(=O)[nH]2)CC1`, the inhibition was -2.04%. Compound `Cc1ccc(-n2c(-c3ccco3)nc3c(cnn3-c3ccc(C)cc3)c2=O)cc1` has an inhibition of -19.3%. `CCOC(=O)c1ccc(NC(=O)c2c(NCc3cc(OC)c(OC)cc3OC)sc3c2CCCC3)cc1` gave an inhibition of -10.4%. In the case of `CCCc1cnc2c(c1SCC(=O)Nc1cccc(C)c1C)c(=O)n(C)c(=O)n2C`, the inhibition was 1.17%. For `CCOc1ccc(-c2nonc2NC(=O)COc2ccccc2)cc1`, the inhibition was 10.7%. `CCN1CCN(c2cc3c(cc2F)c(=O)c(S(=O)(=O)c2cc(C)cc(C)c2)cn3CC)CC1` gave an inhibition of -8.92%. With `O=C(NCCN1CCOCC1)c1ccc([N+](=O)[O-])cc1[N+](=O)[O-]` the inhibition was active: 43%. For `CC1(C)CC(=O)c2cc(OCC(=O)NCCCN3CCN(c4ccccc4F)CC3)ccc2O1`, the inhibition was active: 81.8%. With `CCN(c1ccc(C)cc1C)S(=O)(=O)c1nnc(NC(=O)c2ccccc2OC)s1` the inhibition was -18.1%. `CCOC(=O)c1oc2ccc(S(=O)(=O)n3nc(-c4cc(OCC)c(OCC)c(OCC)c4)cc3N)cc2c1C` was tested, and the inhibition was -1.67%. `CCOC(=O)c1ccc(NC(=O)CC2C(=O)N(c3ccccc3)C(=O)N2C2CCCCC2)cc1` (stereo not given) showed an inhibition of 13.6%. `CCOc1cccc(C(=O)Nc2ccc(NC(=O)c3ccc(Br)cc3)cc2)c1` showed an inhibition of -0.195%. For `O=C(CSc1oc(-c2ccco2)nc1S(=O)(=O)c1ccccc1)c1ccc(Cl)cc1`, the inhibition was 1.29%. In the case of `O=C(NCc1ccccc1C(F)(F)F)C1CC(c2cccc(F)c2)=NO1` (stereo not given), the inhibition was active: 41.8%. `CCCN(CCC)CCCNC(=O)c1cn(CC)c2ccc(S(=O)(=O)N3CCc4ccccc4C3)cc2c1=O` showed an inhibition of -1.15%. `COc1cccc(CNCCSc2nnnn2C)c1OCc1ccc(Cl)cc1` was tested, and the inhibition was 17.5%. For `CC(C)c1ccc(NC(=O)C2CCCN(S(=O)(=O)c3ccc4[nH]c(=O)ccc4c3)C2)cc1` (stereo not given), the inhibition was 4.69%. For `CCc1ccc(Cn2nnc(C(=O)Nc3ccc(C)cc3)c2N)cc1`, the inhibition was -17.5%. For `COc1cc(NC(=O)Cn2cnc3sc(C)c(S(=O)(=O)N4CCN(C)CC4)c3c2=O)cc(OC)c1OC`, the inhibition was 5.47%. With `Cc1ccc(Nc2c(-c3ccc(N4CCOCC4)cc3)nc3ncccn23)cc1C` the inhibition was -0.914%. `CCOC(=O)c1ccc2c(c1)N(CC(=O)Nc1ccc(CC)cc1)C(=O)c1ccccc1S2` gave an inhibition of -25.7%. `COc1ccccc1CNC(=O)c1c(O)nc2cc(C)ccn2c1=O` showed an inhibition of -5.44%. `CCOC(=O)c1c(-c2ccc(OC)c(OC)c2)csc1NC(=O)c1ccc(F)cc1` showed an inhibition of -8.32%. For `Cc1cccc(C(=O)Nc2ccccc2C(=O)OCc2cc(=O)n3nc(C4CC4)sc3n2)c1`, the inhibition was -9.46%. `Cc1cc(C)c(S(=O)(=O)N2CCN(C(=O)C(C)Cn3nc(C)nc3C)CC2)c(C)c1` (stereo not given) was tested, and the inhibition was active: 35%. In the case of `COc1cc2c(-c3ccccc3Cl)nc3c(c(C)nn3-c3ccccc3)c2cc1OC`, the inhibition was -0.309%. `CSC1=NC2(CCN(C(=O)NC3CCCCC3)CC2)N=C1c1ccc(C(C)(C)C)cc1` showed an inhibition of -2.98%. `COc1cccc(N2C(=O)CSC23C(=O)N(CC(=O)NCc2ccc(C)cc2)c2ccccc23)c1` (stereo not given) showed an inhibition of -2.81%. With `O=C(C1CCN(c2nc3ccccc3[nH]2)CC1)N1CCN(c2cccc(Cl)c2)CC1` the inhibition was 13.2%. `Cc1cc(C(C)(C)C)c(O)c(C)c1CC1=NCCN1` was tested, and the inhibition was active: 63.5%. Compound `Cc1cc(C)c2oc(C(=O)Nc3c(C(=O)Nc4ccccc4)oc4ccccc34)cc(=O)c2c1` has an inhibition of -6.39%. `Cn1c(SCc2ccc(F)cc2)nc2ccc(C(=O)NCc3ccccc3)cc21` showed an inhibition of -9.71%. `CCCCn1cc(S(=O)(=O)c2ccc(Cl)cc2)c(=O)c2cc(F)c(N3CCCCC3)cc21` showed an inhibition of 5.17%. Work on `COc1ccc(C(=O)NCC(c2ccco2)S(=O)(=O)c2cccs2)cc1OC` (stereo not given) yielded an inhibition of -5.56%. With `Cc1ccnc(NS(=O)(=O)c2ccc(NC(=O)c3nc(SC(C)C)ncc3Cl)cc2)n1` the inhibition was 5.35%. `CC(C)Oc1ccc(CNC(=O)Cn2ncn3nc(-c4cccs4)cc3c2=O)cc1` gave an inhibition of -4.22%. Compound `O=C(NCc1ccccc1Cl)c1cc2cccc3c2n1CCS3` has an inhibition of 7.41%. `COc1cccc(CNC(=O)c2ccc3c(c2)nc2n3CCC(C)C2)c1OC` (stereo not given) was tested, and the inhibition was -12.6%.
